Assay results published in the supplement of paper PMC4723716.
± gives the uncertainty stated by the source. The full ranking holds about 9,900 compounds; the median of “viability index relative to DMSO control” is about 1, and the lowest 2% start at about 0.85. Some of the results follow.

test system: Plasmodium falciparum NF54 stage V gametocytes; assay: viability index relative to DMSO control (fraction); higher = less gametocyte killing; conditions: 2.5 µM, library set: Broad Institute DOS, incubation time: 72 h
Method in brief: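 Stage V gametocytes of P. falciparum NF54 were held in serum-free screening medium at 0.75% gametocytemia and 1.25% hematocrit, 10 µl per well of a 1,536-well plate, and exposed to compound at 2.5 µM for 72 hr at 37°C under low oxygen. A 3 µl mix of 2.5 µM MitoTracker Red CMXRos with 0.13% saponin was then added for one to two hours, after which one field per well was imaged and red particles of 20–70 µm2 were counted. The viability index equals this count divided by the plate mean from wells given solvent alone.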

| Structure (SMILES) | viability index |
| --- | --- |
| COCC(=O)N1C[C@]2(CCN(Cc3ccccc3)CC2)c2c([nH]c3cc(OC)ccc23)[C@@H]1CO | 1.05 ± 0.044 |
| CO[C@@H](CN(C)Cc1ccc(-c2ccccn2)cc1)[C@@H](C)CN(C(=O)Nc1ccc(F)cc1)[C@H](C)CO | 1.1 ± 0.037 |
| CCCNC(=O)Nc1ccc2c(c1)OC[C@@H](C)N(Cc1cncnc1)C[C@@H](C)[C@@H](OC)CN(C)C2=O | 1.03 ± 0.051 |
| O=C(C[C@H]1C[C@H]2c3cc(NC(=O)Nc4ccccc4)ccc3O[C@H]2[C@H](CO)O1)NCc1ccccc1 | 0.954 ± 0.12 |
| COc1ccc(S(=O)(=O)Nc2ccc3c(c2)OC[C@@H](C)NC[C@H](C)[C@@H](OC)CN(C)C3=O)cc1 | 1.05 ± 0.093 |
| CN(C)C(=O)C[C@H]1C[C@@H]2c3cc(NC(=O)c4cccnc4)ccc3O[C@@H]2[C@H](CO)O1 | 1.063 ± 0.009 |
| CN1C(=O)c2cc(NC(=O)c3cscn3)ccc2OC[C@H]2O[C@H](CC(=O)NCc3ccc(Cl)c(Cl)c3)CC[C@H]21 | 1.08 ± 0.032 |
| CO[C@@H](CN(C)Cc1cc(F)ccc1F)[C@H](C)CN([C@@H](C)CO)S(=O)(=O)c1ccc(C)cc1 | 0.936 ± 0.097 |
| C[C@@H]1CN([C@@H](C)CO)C(=O)CCCn2cc(nn2)CO[C@@H]1CN(C)C(=O)CCC(F)(F)F | 0.944 ± 0.15 |
| COc1ccc2c3c([nH]c2c1)[C@@H](CO)N(C[C@]31CCN(Cc2cccc(F)c2)CC1)C(=O)C1CCOCC1 | 1.02 ± 0.092 |
| CO[C@@H](CN(C)C(=O)C1CCOCC1)[C@@H](C)CN(C(=O)Nc1ccc(C(F)(F)F)cc1)[C@@H](C)CO | 1.08 ± 0.11 |
| O=C(Nc1ccccc1)N1CC(=O)N2[C@H](CO)[C@@H](c3ccc(C#CC4CCCCC4)cc3)[C@H]2C1 | 1 ± 0.13 |
| COc1ccc(NC(=O)N2C[C@H]3[C@@H](c4ccccc42)[C@@H](CO)N3Cc2ccccn2)cc1 | 1.05 ± 0.013 |
| NCC[C@@H]1CC[C@H](NS(=O)(=O)c2ccc(Cl)cc2)[C@H](CO)O1 | 1.08 ± 0.093 |
| CN(C)C(=O)c1cccc(-c2ccc3c(c2)[C@H]2[C@H](CCN2C(=O)Cc2ccccc2)[C@@H](CO)N3)c1 | 0.899 ± 0.042 |
| C[C@H]1CC(=O)NCC/C=C\C[C@@H](c2ccc3c(c2)OCO3)NC1=O | 0.982 ± 0.034 |
| Cc1ccc(S(=O)(=O)N(C)C[C@H]2OCCCC[C@H](C)Oc3ccc(NC(=O)c4ccncc4)cc3C(=O)N([C@@H](C)CO)C[C@@H]2C)cc1 | 1.04 ± 0.031 |
| CC(C)NC(=O)N1[C@H](CO)[C@H]2c3ccccc3N(C)C[C@H]21 | 1.1 ± 0.067 |
| Cc1ccccc1-c1ccc([C@@H]2[C@H]3CN(C(=O)c4ccncc4)CC(=O)N3[C@H]2CO)cc1 | 0.971 ± 0.019 |
| COc1ccc(S(=O)(=O)Nc2cccc3c2O[C@H](CN(C)CC2CCCCC2)[C@H](C)CN([C@@H](C)CO)C3=O)cc1 | 1.04 ± 0.034 |
| C/C=C/c1ccc([C@@H]2[C@@H](CO)N(Cc3cccc(F)c3)C23CN(C(C)=O)C3)cc1 | 1.07 ± 0.04 |
| COCC(=O)Nc1ccc2c(c1)OC[C@@H](C)N(C)C[C@@H](C)[C@@H](OC)CN(C)C2=O | 1 ± 0.046 |
| COc1ccc(S(=O)(=O)N(C)C[C@H]2Oc3c(cccc3N(C)C)C(=O)N([C@@H](C)CO)C[C@@H]2C)cc1 | 1.02 ± 0.016 |

| Structure (SMILES) | viability index |
| --- | --- |
| C[C@H]1CNC(=O)[C@H](Cc2ccc(C(F)(F)F)cc2)CCn2nncc2COC1 | 1.06 ± 0.07 |
| COCC(=O)N1[C@H](C#N)[C@@H](c2ccccc2-c2cccc(C)c2)[C@@H]1CO | 1 ± 0.11 |
| COc1ccc(S(=O)(=O)N(C)C[C@@H]2Oc3ccc(N(C)C)cc3CC(=O)N([C@H](C)CO)C[C@H]2C)cc1 | 1.05 ± 0.019 |
| CO[C@H]1CN(C)C(=O)c2cc(NC(=O)C3CCCCC3)ccc2OC[C@@H](C)N(C(=O)c2ccccc2)C[C@H]1C | 0.9824 ± 0.0016 |
| CN1[C@@H]2c3ccc(-c4ccccc4F)c(=O)n3C[C@@H]2[C@@H](CO)[C@@H]1C(=O)Nc1nccs1 | 1.03 ± 0.054 |
| CCCN1C[C@@]2(C1)CN([C@H](CO)c1c2c2ccc(OC)cc2n1C)C(=O)CN1CCOCC1 | 1.01 ± 0.015 |
| O=C(c1ccc2c(c1)OCO2)N1C[C@@H]2[C@H](c3ccccc31)[C@@H](CO)N2C(=O)CC1CC1 | 0.999 ± 0.03 |
| C[C@H](NC(=O)C[C@H]1CC[C@@H]2[C@H](COC[C@H](O)CN2Cc2ccc(C(F)(F)F)cc2)O1)c1ccccc1 | 1.05 ± 0.022 |
| CCC(=O)N1C[C@@H]2[C@H](c3ccccc31)[C@@H](CO)N2C(=O)CC1CC1 | 1.04 ± 0.035 |
| COc1cccc(-c2ccc([C@H]3[C@H]4CNC[C@@H]3N4C(=O)NC3CCCCC3)cc2)c1 | 1.09 ± 0.034 |
| C[C@@H]1CN([C@@H](C)CO)C(=O)CCCn2nncc2CO[C@H]1CN(C)C(=O)Nc1ccc(-c2cccs2)cc1 | 1.08 ± 0.052 |
| O=C(Nc1ccccc1)N1CC(=O)N2[C@@H](CO)[C@@H](c3ccc(C#CC4CCCCC4)cc3)[C@@H]2C1 | 0.9305 ± 0.0073 |
| CO[C@@H]1CN(C)C(=O)c2ccc(NC(=O)Nc3cc(F)ccc3F)cc2OC[C@H](C)N(C(=O)c2ccccn2)C[C@H]1C | 1.08 ± 0.026 |
| CCCC#Cc1ccc([C@@H]2[C@@H](CO)N3C(=O)CN(C(=O)c4cccnc4)C[C@@H]23)cc1 | 1.04 ± 0.035 |
| O=C(Nc1ccc(F)cc1)N1CC(=O)N2[C@H](C1)[C@H](c1ccc(C#Cc3cccnc3)cc1)[C@@H]2CO | 1.08 ± 0.07 |
| CN(C)C(=O)C[C@H]1CC[C@H]2[C@@H](COC[C@@H](O)CN2C(=O)C2CCOCC2)O1 | 1.09 ± 0.039 |
| O=C(Nc1ccccc1Cl)N1C[C@H]2[C@@H](c3ccccc31)[C@@H](CO)N2C(=O)c1cccnc1 | 1.07 ± 0.036 |
| CC(C)NC(=O)N1Cc2cc(C(=O)NC3Cc4ccccc4C3)nc(-c3cccc(-c4cccnc4)c3)c2[C@@H]1CCO | 0.97 ± 0.052 |
| COc1ccc2c3c([C@H](CO)N(CC4CC4)C[C@]33CN(C3)C(=O)c3ccc4OCOc4c3)n(C)c2c1 | 0.976 ± 0.068 |
| CN1C(=O)c2cc(NC(=O)c3cccc(C(F)(F)F)c3)ccc2OC[C@@H]2O[C@@H](CC(=O)NCCN3CCCC3)CC[C@H]21 | 1.01 ± 0.086 |
| CCCNC(=O)N(C)C[C@@H]1Oc2cc(C#C[C@H](C)O)ccc2S(=O)(=O)N([C@@H](C)CO)C[C@@H]1C | 1.04 ± 0.025 |
| O=C(C[C@H]1C[C@@H]2c3cc(NC(=O)C4CCOCC4)ccc3O[C@@H]2[C@H](CO)O1)NCc1cccnc1 | 1.03 ± 0.025 |
| C[C@@H]1CN([C@H](C)CO)C(=O)c2cc(NC(=O)C3CCCCC3)ccc2O[C@H]1CN(C)C(=O)Nc1ccc(C(F)(F)F)cc1 | 0.978 ± 0.045 |
